# Test results from PMC9911399, “Two distinct binding modes provide the RNA-binding protein RbFox with extraordinary sequence specificity”.
# Residue numbers refer to the chain shown, from its start. The list shows a part of the results.
# T1: RBFOX1 RRM (Homo sapiens, UniProt Q9NWB1 109-208)
# T1 sequence: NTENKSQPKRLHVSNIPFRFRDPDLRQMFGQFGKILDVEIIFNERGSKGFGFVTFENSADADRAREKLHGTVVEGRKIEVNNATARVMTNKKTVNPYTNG
# B1: AUAAUUC (DNA:RNA)
# RNA: GGGAGACCGGAAUUCAGAUUGUCCAUAAUUCUUAAAUCCCGUCGUAGCCACCA
# DNA 1: CAATCTGAATTCCGGTCTCCC
# DNA 2: TGGTGGCTACGACGGGATT
# B2: UACUUCG (DNA:RNA)
# RNA: B1 RNA with A25U, U26A, A27C, A28U, U30C, C31G
# DNA 1: CAATCTGAATTCCGGTCTCCC
# DNA 2: TGGTGGCTACGACGGGATT
# B3: GACACUU (DNA:RNA)
# RNA: B1 RNA with A25G, U26A, A27C, U29C, C31U
# DNA 1: CAATCTGAATTCCGGTCTCCC
# DNA 2: TGGTGGCTACGACGGGATT
# B4: UUGACAC (DNA:RNA)
# RNA: B1 RNA with A25U, A27G, U29C, U30A
# DNA 1: CAATCTGAATTCCGGTCTCCC
# DNA 2: TGGTGGCTACGACGGGATT
# B5: UUCCGGU (DNA:RNA)
# RNA: B1 RNA with A25U, A27C, A28C, U29G, U30G, C31U
# DNA 1: CAATCTGAATTCCGGTCTCCC
# DNA 2: TGGTGGCTACGACGGGATT
# B6: CAUCGUC (DNA:RNA)
# RNA: B1 RNA with A25C, U26A, A27U, A28C, U29G
# DNA 1: CAATCTGAATTCCGGTCTCCC
# DNA 2: TGGTGGCTACGACGGGATT
# B7: UGAGCGA (DNA:RNA)
# RNA: B1 RNA with A25U, U26G, A28G, U29C, U30G, C31A
# DNA 1: CAATCTGAATTCCGGTCTCCC
# DNA 2: TGGTGGCTACGACGGGATT
# B8: GGACACU (DNA:RNA)
# RNA: B1 RNA with A25G, U26G, A28C, U29A, U30C, C31U
# DNA 1: CAATCTGAATTCCGGTCTCCC
# DNA 2: TGGTGGCTACGACGGGATT
# B9: ACAUGAC (DNA:RNA)
# RNA: B1 RNA with U26C, A28U, U29G, U30A
# DNA 1: CAATCTGAATTCCGGTCTCCC
# DNA 2: TGGTGGCTACGACGGGATT
# Target: T1, RBFOX1 RRM
# Assay: EMSA; HiTS-Eq, 1 nM pool, 10 min; buffer printed only for the single-RNA assays: 10 mM Tris pH 7.5, 150 mM NaCl, 3.4 mM EDTA, 0.001% NP-40, 30 C
# Conditions: tags: His6 N-terminal (pET28a); label: 5' 32P
# Summary of the method: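 Purified RbFox RRM (wild type or mutant) was equilibrated for 10 min in 50 µL with 1 nM of a 5′-radiolabelled pool of RNA with 7 randomized nucleotides, its flanks annealed to DNA oligonucleotides, across increasing protein concentrations. Free RNA was separated by 8% native PAGE, excised, reverse-transcribed, PCR-barcoded and sequenced on an Illumina HiSeq 2500. Relative association constants came from read-count changes of each variant against the control reaction, normalised to the cognate motif.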
row,Binder,binding signal
1,B1,0.0031 KA relative to UGCAUGU
2,B2,0.0208 KA relative to UGCAUGU
3,B3,0.00769 KA relative to UGCAUGU
4,B4,0.0073 KA relative to UGCAUGU
5,B5,0.00729 KA relative to UGCAUGU
6,B6,0.00528 KA relative to UGCAUGU
7,B7,0.0174 KA relative to UGCAUGU
8,B8,0.0158 KA relative to UGCAUGU
9,B9,0.00505 KA relative to UGCAUGU
